We go through 113 molecules from PubChem BioAssay AID1240 (Sanford-Burnham Center for Chemical Genomics, 2008).

Molecules are shown by their SMILES. Screen size: about 50,000 compounds; about 800 (1.6%) showed an effect of 50% or more. Some of the results follow.

The target of this assay is Bcl-2-like protein 10 (Homo sapiens) (UniProt Q9HD36). Kind of assay: Phenotype converters, Bcl-B/TR3 peptide binding displacement, primary biochemical FP (AID 1240).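 Also: 0% = Bcl-B with tracer peptide and DMSO and 100% = tracer peptide lacking Bcl-B.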 To be noted: GST-Bcl-B / FITC-TR3 peptide fluorescence polarization; stronger effect = higher value; compound at 3.75 mg/L.
UniProt Q9HD36, sequence (Q9HD36 whole entry, looked up): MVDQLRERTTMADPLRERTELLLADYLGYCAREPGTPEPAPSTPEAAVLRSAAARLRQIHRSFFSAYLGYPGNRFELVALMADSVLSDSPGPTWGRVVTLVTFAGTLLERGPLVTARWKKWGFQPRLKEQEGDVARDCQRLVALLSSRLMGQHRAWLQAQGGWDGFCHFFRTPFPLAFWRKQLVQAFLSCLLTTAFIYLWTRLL
As to `O=C(CCCOc1ccccc1)Nc1ccccc1F`, the displacement is -2.5%. As for `CCOc1ccc2nc(SCC(=O)Nc3ccc(OC)cc3OC)sc2c1`, the displacement was determined as 16.2%. With `CC(=O)ON1C(c2ccccc2)N=C(c2ccccc2)C1(C)C` (stereo not drawn), the displacement is -3.8%.

Regarding `CC(=O)N/C(=N\c1nc(C)cc(C)n1)Nc1ccc(Cl)cc1Cl`, the displacement is -1%. As for `O=C(Nc1ccccc1)C1CC(=O)N(c2ccc(Br)cc2)C1` (stereo not drawn), the displacement was 13.2%. Regarding `O=[N+]([O-])c1ccc(Nc2ccc(Br)cc2)nc1`, the displacement is -6.7%. Take `O=C(c1ccc([N+](=O)[O-])cc1)N1CCN(Cc2cccc(Br)c2)CC1`: the displacement is -1.9%.

Turning to `CCc1ccc(C(=O)CSc2n[nH]c(-c3ccccc3)n2)cc1`, the displacement worked out at 11.5%. Take `O=[N+]([O-])c1cccc(-c2noc(-c3ccc(I)cc3)n2)c1`: the displacement came to 3.9%.

Regarding `NS(=O)(=O)c1ccc(CCNC(=O)Nc2ccc(Cl)cc2)cc1`, the displacement worked out at 11.1%. For `CCCCOc1ccc(C(=O)N2CCN(c3cccc(C)c3C)CC2)cc1`, the displacement was -8.2%. As to `O=C1CS/C(=N\N=C\c2cccc(Br)c2)N1`, the displacement was 12.2%. For the molecule `CN1CCN(C(=O)c2cccc3ccccc23)CC1`, the displacement is 2.5%. As for `CC(=O)Nc1ccc(/C=C2\C(=O)NN(c3ccccc3)C2=O)cc1`, the displacement was -19%. For the molecule `CC(C)N1CCC(=NNC(=O)C2CC2)CC1`, the displacement is -0.9%. In the case of `CCCC(=O)Nc1cccc(NC(=O)c2ccc(-c3cccc(Cl)c3C)o2)c1`, the displacement was -13.7%.

In the case of `CCOC(=O)C(=CNc1ccc(OCc2ccccc2)cc1)C(=O)OCC`, the displacement is -0.6%. With `O=c1[nH]c(O)c(C=NCc2ccccc2)c(=O)[nH]1`, the displacement was found to be 0.8%. To `C=CCOc1ccc(Cl)cc1C=C1C(=O)NC(=O)NC1=O` belongs 11.4%.

For `O=c1oc2ccc([N+](=O)[O-])cc2cc1-c1nc2ccccc2o1`, the displacement was -4.7%.

For the molecule `CC(=O)C1C(c2ccc(N(C)C)cc2)c2c(noc2C)CC1(C)O` (stereo not drawn), the displacement was -4.6%. For the molecule `CCC(C)NS(=O)(=O)c1ccc([N+](=O)[O-])cc1` (stereo not drawn), the displacement worked out at 2.7%.

`C=C1c2ccc(C)cc2NC(=O)N1c1ccc(Cl)cc1`: the displacement was -15.9%. For the molecule `CCOC(=O)c1oc2ccc(CNC3CCCCC3)c(Cl)c2c1C`, the displacement was -6.7%. Consider `CCOC(=O)c1c(CN2CCCCC2)n(C)c2cc(Br)c(O)cc12`, for which the displacement is -3.6%.

Consider `CCOC(=O)c1c(C)[nH]c2cc(Br)c(OC)cc12`, for which the displacement is -17.8%. With `CCN(CC)C(=O)C1CC(=O)OC12CCCCC2` (stereo not drawn) the figure was -8.4%; with `COc1cc(/C=C2\SC(=S)N(NC(=O)c3ccncc3)C2=O)ccc1OCc1ccccc1Cl`, -12.2%. As for `CC1CCCN(C(=O)C(Sc2ccccc2)c2ccccc2)C1` (stereo not drawn), the displacement turned out to be 7.1%. For `N#CC(C#N)=NNc1ccc(O)c(C(=O)O)c1`, the displacement turned out to be 18.2%. To `Cc1ccc(/C=C2\SC(=O)N(CCC(=O)NNC(=O)c3cccc(Cl)c3)C2=O)cc1` belongs 0.6%; to `COCCNCC(=O)C12CC3CCC(CC(C3)C1)C2`, -0.8%; to `CCOc1cc(/C=N/NC(=O)CC2C(=O)NN=C2C)ccc1O` (stereo not drawn), -6.7%. For `CCOC(=O)/C=C(\C)CC/C=C(/C)CC`, the displacement is -4.1%. Consider `COc1ccc(S(=O)(=O)NNC(=O)C23CC4CC(CC(C4)C2)C3)cc1`, for which the displacement turned out to be 11.9%.

On to `O=C(Cc1ccccc1)NN1C(=O)/C(=C/c2cccs2)SC1=S`, for which the displacement is 24.9%. Consider `Cc1ccc(C(=O)Nc2ccc(Cl)cc2C)cc1`, for which the displacement was -12.9%. Consider `CC(C)(C)c1cc(/C=N/O)c(C(C)(C)C)s1`, for which the displacement was -2.4%. For `CC(C)CNC(=O)c1cccc(NC(=O)CN2C(=O)c3ccccc3C2=O)c1`, the displacement turned out to be 13.8%. Turning to `Cc1cccc(C(=O)Nc2ccc(Oc3ccccc3)cc2)c1`, the displacement was -0.1%. `O=C(Oc1ccc(/C=N/n2cnnc2)cc1)c1ccco1`: the displacement is -7.8%.

As for `CN(C)c1ccc(/C=C2/C(=O)NN(c3cccc(Cl)c3)C2=O)cc1`, the displacement stood at 13.5%. On to `Cc1cc(C)c2nc3s/c(=C\c4ccc(-c5cc(C)c(C)cc5[N+](=O)[O-])o4)c(=O)n3c2c1`, for which the displacement is -4.7%. As for `O=C(Nc1ccc(F)c(Cl)c1)c1ccc([N+](=O)[O-])cc1`, the displacement is 6.3%. To `Cc1cc(Br)ccc1NC(=O)c1ccc(C)c([N+](=O)[O-])c1` belongs 8.6%; to `COc1ccc2c(c1OC)C(=O)OC2Nc1ccc(S(N)(=O)=O)cc1` (stereo not drawn), 3.9%; to `Cc1oc(-c2ccccc2)cc1C(=O)O`, -10.4%. `Cc1cc(C)nc(SCC(=O)N/N=C/c2ccc(O)cc2)n1`: the displacement is 3.9%. Take `O=C(CN1C(=O)c2ccccc2C1=O)Nc1cc([N+](=O)[O-])ccc1Cl`: the displacement amounted to 14.5%. To `O=C(Nc1ccccc1Cl)C(c1ccccc1)c1ccccc1` belongs 5.9%. Consider `CCc1nnc(/N=C/c2c(C)[nH]n(-c3ccc(C)c(C)c3)c2=O)s1`, for which the displacement was 1.2%.

On to `Cc1ccccc1C(=O)Oc1ccccc1C(=O)N1CCOCC1`, for which the displacement was -6.6%. `COC(=O)c1ccc(C(=O)OC)c(NC(=O)CCC(=O)O)c1`: the displacement came out at 8.2%.

For the molecule `COc1ccc(/C=C2\C(=O)NC(=O)N(c3cc(C)cc(C)c3)C2=O)cc1[N+](=O)[O-]`, the displacement was -14.2%. Regarding `CCN(C(=O)c1c(-c2c(Cl)cccc2Cl)noc1C)c1ccccc1C`, the displacement was 6.8%. In the case of `CC(=O)Nc1ccc(NS(=O)(=O)Cc2ccccc2)cc1`, the displacement worked out at 12.8%.

Take `CCOC(=O)NC(NC(=O)OCC)c1cccc([N+](=O)[O-])c1`: the displacement was -5.1%.

With `Cc1ccc(NC(=O)COc2ccc(Br)c(C)c2)c([N+](=O)[O-])c1`, the displacement was found to be 11.5%. With `Cc1ccccc1C(=O)NNC(=O)c1cccc2ccccc12`, the displacement is -7.1%. As to `CCOc1ccc(NC(=O)c2c(NC(=O)c3ccc([N+](=O)[O-])cc3)sc3c2CCCC3)cc1`, the displacement came out at 1%.

For the molecule `COc1ccccc1CC(=O)Nc1ccc(Br)cc1C`, the displacement is -6.4%. `Cc1cc(=O)[nH]c(SCC(=O)c2ccc(Br)cc2)c1C#N`: the displacement stood at 1.1%. For `Cc1nc2ccc(NC(=S)N(C)C)cc2nc1C`, the displacement was -12%. With `CC(=O)Nc1cc(-c2ccc(Br)cc2)nn1Cc1ccccc1`, the displacement is -4.8%.

On to `O=C(Nc1ccccc1)/C(=C\c1ccco1)NC(=O)c1ccco1`, for which the displacement was -5.8%. On to `O=C(Cc1ccccc1)N1N=C(c2cccc(Br)c2)CC1(O)C(F)(F)F` (stereo not drawn), for which the displacement came out at 6.6%.

Consider `Cc1cc(C)c(OCC(=O)Nc2c(C)cccc2C)c(C)c1`, for which the displacement turned out to be 11.7%. In the case of `O=C(/C=C/c1ccccc1)NC(=S)Nc1cccc2ccccc12`, the displacement was -5%. Take `COC(=O)c1c(C)oc2ccc(OC/C=C/c3ccccc3)cc12`: the displacement worked out at 8.9%. Regarding `CCOc1ccccc1NC(=O)c1c(Cl)cccc1Cl`, the displacement is -2.2%. As to `Cc1cc(C)nc(/N=C(\N)Nc2cc(Cl)cc(Cl)c2)n1`, the displacement was determined as 12.3%. To `COC(=O)c1ccc(C(=O)Nc2cc(Cl)ccc2Cl)cc1NC(=O)COc1ccc(F)cc1` belongs 9.9%. Take `CCOC(=O)CSCc1nc2c(c(=O)[nH]1)C1(CCCC1)Cc1ccccc1-2`: the displacement stood at 0%.

Take `O=C1N/C(=N\N=C\c2ccccc2F)SC1Cc1ccccc1[N+](=O)[O-]` (stereo not drawn): the displacement amounted to 7.3%. With `O=C1CC(c2ccccc2)CC2=C1C(c1coc3ccccc3c1=O)Nc1ccccc1N2` (stereo not drawn) the figure was -3.3%. `O=C1CC(Sc2nc3ccccc3s2)C(=O)N1c1ccccc1I` (stereo not drawn): the displacement was -17.4%. To `COc1ccc(CCNC(=O)COc2cc(C)c(Cl)c(C)c2)cc1` belongs 7.5%; to `COCCOC(=O)c1c(C)oc2ccc(OC(=O)c3cccs3)cc12`, 6.9%.

Turning to `COc1ccc(CCNc2cc(N3CCOCC3)ccc2[N+](=O)[O-])cc1OC`, the displacement came to 7.3%.

With `COc1ccc(/C=C2\SC(=S)NC2=O)cc1C`, the displacement is 44.9%.

For the molecule `COc1ccc([N+](=O)[O-])cc1NC(=O)Cc1ccc(OC)c(OC)c1`, the displacement is -5.7%. With `COc1cc(S(=O)(=O)N2CCOCC2)c(OC)cc1Cl` the figure was -6%; with `NC(=O)C(=O)NCc1ccc(Cl)cc1`, 6.7%.

As for `O=C(CN1CCCCC1)Nc1ccccc1I`, the displacement came to 1.3%. Turning to `COC(=O)c1sccc1NC(=O)/C=C/c1ccc(OC)cc1`, the displacement turned out to be 6.8%.

Turning to `O=[N+]([O-])c1c(Nc2ccccc2O)ncnc1Nc1ccccc1O`, the displacement amounted to 28.4%.

`COC(C)(C)C(=O)CC(=O)C(C)(C)C`: the displacement came out at 3.4%.

As to `CS(=O)(=O)N(Cc1ccc(Cl)cc1)c1ccc(C(=O)NCc2ccco2)cc1`, the displacement was -14.6%. For `CNC(=O)/C=C1\NC(C)(C)Cc2ccccc21`, the displacement is -7.1%. Regarding `Cc1ccc(NC(=O)NC2CCCC2)cc1`, the displacement came out at 2.4%. As to `C=CCOc1ccc(/C=C2\C(=O)NC(=S)N(c3ccccc3)C2=O)cc1OC`, the displacement worked out at 2.2%. Take `O=C(O)c1cccc(C(=O)O)c1N(c1ccccc1)c1ccccc1`: the displacement turned out to be 10.7%. Take `O=S(=O)(NCc1ccccc1Cl)c1ccccc1`: the displacement is -3.6%. Take `O=C(Nc1ccc(S(=O)(=O)c2ccc(NC(=O)C(F)(F)F)cc2)cc1)C(F)(F)F`: the displacement is 0.6%. With `CCOC(=O)c1c(C)oc2ccc(N(C(=O)c3ccncc3)S(=O)(=O)c3ccc(C)cc3)cc12` the figure was -1.8%; with `Cc1ccc(-n2nc(C)c3c(=O)oc(C)cc32)cc1`, 16.1%; with `COc1ccc(NS(=O)(=O)c2ccc(NC(=S)NC(=O)C34CC5CC(CC(C5)C3)C4)cc2)nn1`, 3.6%. With `CC(=O)N(C)c1ccc(NC(=O)COc2ccc3ccccc3c2)cc1` the figure was 1.8%. Turning to `COc1ccccc1N1CCN(/N=C\c2ccc(O)cc2O)CC1`, the displacement is -4.6%. Take `CCOC(=O)C1=C(C)NC(=O)NC1c1ccc(F)cc1F` (stereo not drawn): the displacement was -4.9%. For `COc1cccc(NC(=O)CN(c2ccc(C)cc2)S(C)(=O)=O)c1`, the displacement was -2.2%. To `CC1(C)Oc2ccc3ccc(=O)oc3c2/C(=C/N2CCOCC2)C1=O` belongs -5.9%; to `Cc1onc(-c2ccccc2)c1C(=O)Nc1ccc([N+](=O)[O-])cc1Br`, 5.4%. To `O=C(O)CCC(=O)Nc1sc2c(c1C(=O)Nc1ccccc1)CCCC2` belongs 4.5%. Take `COC(=O)C1=NN(C(C)=O)C2C(=O)N(c3cccc(C)c3)C(=O)C12` (stereo not drawn): the displacement is 7.5%. Turning to `O=C(O)CN(c1ccccc1[N+](=O)[O-])S(=O)(=O)c1ccccc1`, the displacement stood at 6.8%. `Cc1ccc(S(=O)(=O)N(CCc2ccccc2)CC(=O)NCc2cccnc2)cc1`: the displacement was 14.2%. Turning to `COc1ccccc1NC(=O)C1CC(C)=C(C)CC1C(=O)O` (stereo not drawn), the displacement is -2.9%. As for `Cc1c(C)c(COCc2c(C)c(C)c(C=O)c(C)c2C)c(C)c(C)c1C=O`, the displacement is -6.7%. Turning to `CCOc1cccc(-c2nnc(NC(=O)Nc3ccccc3)s2)c1`, the displacement was 7.8%. Turning to `Cc1cc(C)c(NC(=O)C(C)Sc2nc3ccccc3s2)c(C)c1` (stereo not drawn), the displacement was 8.7%. `Cc1cc(C)c(NC(=O)C(C)Sc2ccccn2)c(C)c1` (stereo not drawn): the displacement was 39.1%. `c1ccc(Nc2ccccc2Nc2ccccn2)nc1`: the displacement was 22.6%.
